Data reported in paper PMC3791423, “A Key Hydrophobic Patch Identified in an AAA^+ Protein Essential for Its In Trans Inhibitory Regulation” (Journal of Molecular Biology, 2013).

Biological target: the molecule itself
Assay: SEC; Yarra Sec-S3000 column, 50 μM injection concentration (20 μM also run), no nucleotide, no reducing agent, 4 °C (legend; column oven 8 °C in the methods), 20 mM Tris–HCl pH 8.0, 50 mM NaCl, 15 mM MgCl2; apparent oligomers

| Protein | stoichiometry N |
| --- | --- |
| PspF_([…]) F60C (domain or fragment, E. coli PspF, […], site-directed mutant of pPB1) not shown | > 20 mer |
| PspF_([…]) L52C (domain or fragment, E. coli PspF, […], site-directed mutant of pPB1) not shown | 6 |
| PspF_([…]) I61C (domain or fragment, E. coli PspF, […], site-directed mutant of pPB1) not shown | > 20 mer |
| PspF_([…]) G58C (domain or fragment, E. coli PspF, […], site-directed mutant of pPB1) not shown | 6 |
| PspF_([…]) Q57C (domain or fragment, E. coli PspF, […], site-directed mutant of pPB1) not shown | > 20 mer |
| PspF_([…]) W56C (domain or fragment, E. coli PspF, […], site-directed mutant of pPB1) not shown | 6 |
| PspF_([…]) Y51C (domain or fragment, E. coli PspF, […], site-directed mutant of pPB1) not shown | > 15 mer |
| PspF_([…]) S62C (domain or fragment, E. coli PspF, […], site-directed mutant of pPB1) not shown | > 15 mer |
| PspF_([…]) S53C (domain or fragment, E. coli PspF, […], site-directed mutant of pPB1) not shown | > 20 mer |
| PspF_([…]) P59C (domain or fragment, E. coli PspF, […], site-directed mutant of pPB1) not shown | > 20 mer |
| PspF_([…]) S54C (domain or fragment, E. coli PspF, […], site-directed mutant of pPB1) not shown | > 20 mer |
| PspF_([…]) H50C (domain or fragment, E. coli PspF, […], site-directed mutant of pPB1) not shown | > 20 mer |
| PspF_([…]) R55C (domain or fragment, E. coli PspF, […], site-directed mutant of pPB1) not shown | 2 |
